Measured values from PMC4336329 (PLoS ONE, 2015).
Out of some 310,000 compounds screened, about 14,000 (4.5%) showed an effect of 50% or more. The effect is printed as a negative number. The list shows a part of the results.

target: human ether-à-go-go-related gene (hERG) potassium channel (human, UniProt Q12809); test: primary screen, population patch clamp on CHO cells stably expressing hERG
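Also: peak tail current of the secondary pulse compared with the same well before compound.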

Chain of human ether-à-go-go-related gene (hERG) potassium channel (Q12809 whole entry, looked up): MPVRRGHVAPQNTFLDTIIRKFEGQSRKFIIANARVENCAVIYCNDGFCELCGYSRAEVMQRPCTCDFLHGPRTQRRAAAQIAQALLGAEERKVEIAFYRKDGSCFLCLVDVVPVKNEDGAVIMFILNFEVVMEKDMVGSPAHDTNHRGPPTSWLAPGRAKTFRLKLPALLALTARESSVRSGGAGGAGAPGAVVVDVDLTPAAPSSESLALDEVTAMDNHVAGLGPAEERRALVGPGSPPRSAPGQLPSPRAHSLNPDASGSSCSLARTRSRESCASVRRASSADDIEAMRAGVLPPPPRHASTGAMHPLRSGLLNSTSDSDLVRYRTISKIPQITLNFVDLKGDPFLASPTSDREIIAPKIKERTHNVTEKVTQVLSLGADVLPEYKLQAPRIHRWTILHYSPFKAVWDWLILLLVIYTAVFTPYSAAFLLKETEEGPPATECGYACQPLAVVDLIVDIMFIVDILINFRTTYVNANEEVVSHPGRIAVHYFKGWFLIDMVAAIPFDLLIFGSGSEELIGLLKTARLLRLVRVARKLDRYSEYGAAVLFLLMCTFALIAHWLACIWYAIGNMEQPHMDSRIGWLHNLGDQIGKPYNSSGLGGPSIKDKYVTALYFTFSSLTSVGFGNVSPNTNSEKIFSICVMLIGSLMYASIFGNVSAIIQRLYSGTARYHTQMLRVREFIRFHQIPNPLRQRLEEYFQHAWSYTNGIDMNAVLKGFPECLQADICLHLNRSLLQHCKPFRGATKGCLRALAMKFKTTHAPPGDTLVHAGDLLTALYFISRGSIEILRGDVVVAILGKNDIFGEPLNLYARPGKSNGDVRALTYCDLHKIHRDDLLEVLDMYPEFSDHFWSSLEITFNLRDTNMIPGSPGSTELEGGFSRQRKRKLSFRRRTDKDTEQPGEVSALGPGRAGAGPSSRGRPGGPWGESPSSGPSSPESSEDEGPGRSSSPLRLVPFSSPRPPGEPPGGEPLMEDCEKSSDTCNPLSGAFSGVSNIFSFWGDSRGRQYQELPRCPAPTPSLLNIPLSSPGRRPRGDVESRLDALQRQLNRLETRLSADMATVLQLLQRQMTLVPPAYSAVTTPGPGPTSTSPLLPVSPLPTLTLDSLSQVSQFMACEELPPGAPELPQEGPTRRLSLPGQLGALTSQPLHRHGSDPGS

Going from `COc1ccc(CN(C(=O)/C=C/c2ccccc2Cl)C2CCS(=O)(=O)C2)cc1` (centres unmarked) to `COc1cccc(C(=O)N2CCN(C(=O)COc3ccc4ccccc4c3)CC2)c1`, the “hERG current change (%, negative = inhibition) at 10uM” value falls from -16.9% to -47.4%.

Compared with `O=C1/C(=C2\C(=O)N(Cc3ccc(F)cc3)c3ccccc32)SC(=S)N1CCS(=O)(=O)O`, `Cc1cc(C)nc(NS(=O)(=O)c2ccc(NC(=O)CCN3C(=O)c4ccccc4C3=O)cc2)n1` is lower in “hERG current change (%, negative = inhibition) at 10uM” value: 4.31% for the first, 3.74% for the second.

Compared with `CCCc1nnc(NC(=O)c2ccncc2)s1`, `O=C(Cc1cccs1)Nc1nnc(-c2ccncc2)s1` is lower in “hERG current change (%, negative = inhibition) at 10uM” value: -3.78% for the first, -21.2% for the second.

First: Cc1ccc(N2C(=O)C(CN3CCCCC3)C2c2ccccc2)cc1 (centres unmarked)
Second: Cc1ccc2oc(=O)cc(CN3CCN(Cc4ccccc4)CC3)c2c1
The “hERG current change (%, negative = inhibition) at 10uM” value of the first is lower: -62.6% for the first, -56.8% for the second.

Compared with `NNC(=O)c1csc(-c2cccc(C(F)(F)F)c2)n1`, `Cn1c(SCC(=O)Nc2cc([N+](=O)[O-])ccc2F)nnc1C(F)(F)F` is higher in “hERG current change (%, negative = inhibition) at 10uM” value: -30% for the first, -14.3% for the second.

Going from `CCc1noc(C)c1C(=O)Nc1ncc(C)s1` to `CCc1ccc(OCC(=O)NNC(=O)c2c(CC)noc2C)cc1`, the “hERG current change (%, negative = inhibition) at 10uM” value rises from 10.4% to 10.8%.

First: COc1ccc(NC(=O)NC2(C(=O)N3CCCCC3)CCCCC2)cc1
Second: COc1ccc(N2CCN(S(=O)(=O)CCNC(=O)C3CC3)CC2)cc1
The “hERG current change (%, negative = inhibition) at 10uM” value of the first is higher: 24.8% for the first, -4.28% for the second.

Compared with `CCOc1ccccc1OCCCC(=O)NNC(=O)c1nn(C)c(=O)c2ccccc12`, `CCCc1cc(=O)[nH]c(SCC(=O)NC(=O)c2ccccc2)n1` is higher in “hERG current change (%, negative = inhibition) at 10uM” value: -20.3% for the first, -2.69% for the second.

Going from `COc1cccc(C(=O)c2cn(CC(=O)NCc3ccco3)c3nc(C)ccc3c2=O)c1` to `COc1ccc(NC(=O)CN(C)C(=O)c2cc(-c3ccc(Cl)cc3)nc3ccccc23)cc1`, the “hERG current change (%, negative = inhibition) at 10uM” value falls from -2.12% to -3.02%.

First: Cl.OCCN1CCN(c2ncnc3ccc(Br)cc23)CC1
Second: COc1ccc(O)c(CN2CCN(C/C=C/c3ccccc3)CC2)c1
The “hERG current change (%, negative = inhibition) at 10uM” value of the first is higher: 0.812% for the first, -51.9% for the second.

Compared with `Cc1nc(CC(=O)c2c(C)cc(O)cc2O)cs1`, `CCOC(=O)CSc1nc(C)c2cc(C)c(C)cc2n1` is lower in “hERG current change (%, negative = inhibition) at 10uM” value: 5.96% for the first, 4.38% for the second.

First: COc1ccc(-c2nn(-c3ccccc3)cc2/C=N/Nc2ccccn2)cc1
Second: COc1ccc(NC2c3ccccc3C(=O)N2c2cccnc2)cc1 (centres unmarked)
The “hERG current change (%, negative = inhibition) at 10uM” value of the first is higher: 23% for the first, -2.82% for the second.

First: CCOC(=O)c1[nH]c(C)c(C(=O)Nc2ccc3c(c2)OCCO3)c1C
Second: COc1ccc2oc(C(=O)OCC(=O)NC3CC3)c(C)c2c1
The “hERG current change (%, negative = inhibition) at 10uM” value of the first is lower: -5.88% for the first, 11% for the second.

Going from `COc1ccccc1NC(=O)c1cccc(S(=O)(=O)N2CCN(c3ccccc3)CC2)c1` to `CCN(c1ccccc1)S(=O)(=O)c1cccc(C(=O)NCC(c2ccco2)N2CCCC2)c1` (centres unmarked), the “hERG current change (%, negative = inhibition) at 10uM” value falls from -11.2% to -59.3%.

Going from `CCOC(=O)NC(CC(=O)O)c1ccc(OC)cc1` (centres unmarked) to `CCOC(=O)Oc1ccc(/C=C2\N=C(C)OC2=O)cc1`, the “hERG current change (%, negative = inhibition) at 10uM” value rises from 7.43% to 25.6%.

Going from `COCCNC(=O)Cn1cnc2c1c(=O)n(C)c(=O)n2C` to `CCN(CC)CCCNC(=O)c1cn(CCOC)c(=O)c2c1c1ccccc1n2C`, the “hERG current change (%, negative = inhibition) at 10uM” value falls from 6.51% to -0.445%.

First: COC(=O)c1cc2c(ccc3ccccc32)oc1=O
Second: O=c1cc(CN2CCOCC2)c2c(ccc3ccccc32)o1
The “hERG current change (%, negative = inhibition) at 10uM” value of the first is higher: -8.56% for the first, -14.2% for the second.

Going from `Cc1nccn1CCCN1C(=O)OC2(CCCCC2)C1(C)O` (centres unmarked) to `CN(CC(O)COc1c(F)cc(Br)cc1F)C1CCCCC1.Cl` (centres unmarked), the “hERG current change (%, negative = inhibition) at 10uM” value falls from 18.9% to -65.9%.

Compared with `COC(=O)c1ccccc1NC(=O)c1ccc(Cn2cc(Cl)cn2)o1`, `O=C(NC(=S)Nc1ccccc1C(=O)O)c1ccc(-c2ccc(Br)cc2)o1` is higher in “hERG current change (%, negative = inhibition) at 10uM” value: 4.21% for the first, 28.3% for the second.

Compared with `CCOC(=O)c1cnc(SCC(=O)Nc2cc(OC)cc(OC)c2)nc1N`, `COC(=O)c1sc(NC(=O)CSc2nnc(Cn3nnc4ccccc43)n2C)nc1C` is higher in “hERG current change (%, negative = inhibition) at 10uM” value: -5.5% for the first, 23.9% for the second.

Going from `O=C(CCCO)NC1Cc2ccccc2C1` to `COc1cc(C(=O)NC2Cc3ccccc3C2)ccc1OC1CCN(C(C)=O)CC1`, the “hERG current change (%, negative = inhibition) at 10uM” value rises from 2.04% to 4.22%.

Compared with `Cc1ccsc1C(=O)OCC(=O)Nc1sccc1C(N)=O`, `CNC(=O)c1ccsc1NC(=O)CCS(=O)(=O)c1ccccc1` is higher in “hERG current change (%, negative = inhibition) at 10uM” value: -6.35% for the first, 2.74% for the second.

Compared with `CS(=O)(=O)N(Cc1ccccc1F)c1ccccc1`, `Nc1ccc(S(=O)(=O)NC(=O)c2ccccc2)cc1` is higher in “hERG current change (%, negative = inhibition) at 10uM” value: 0.694% for the first, 12.7% for the second.

Going from `Cc1ccc(OCC(=O)NC(=S)Nc2ccccn2)c(Br)c1` to `Cn1ncc2cc(NC(=S)NC(=O)c3ccccc3)ccc21`, the “hERG current change (%, negative = inhibition) at 10uM” value falls from 24.3% to -10.3%.

Compared with `COc1cccc(CNC(=O)C(C)n2ccc3cc(S(=O)(=O)N4CCCCCC4)ccc32)c1` (centres unmarked), `CN(CC(=O)Nc1ccccc1Cl)C(=O)c1ccc(N2CCCCCC2)c([N+](=O)[O-])c1` is lower in “hERG current change (%, negative = inhibition) at 10uM” value: 5.13% for the first, -20.2% for the second.

Going from `COc1cccc(NC(=O)CC(c2ccc(OC(C)C)cc2)c2ccccc2OC)c1` (centres unmarked) to `CCn1nnc2cc(C(=O)NCC(c3ccccc3OC)N(C)C)ccc21` (centres unmarked), the “hERG current change (%, negative = inhibition) at 10uM” value rises from 1.26% to 12%.

First: COCCNC(=S)N/N=C(\C)c1ccc(-n2ccnc2)cc1
Second: Cc1cc(/C=N/NC(N)=S)c(C)n1-c1ccc(Br)cc1
The “hERG current change (%, negative = inhibition) at 10uM” value of the first is lower: -66.2% for the first, 5.38% for the second.

Going from `Cc1ccc(-c2nnc(N3CCC(C)CC3)c3ccccc23)cc1C` to `Cc1ccccc1C(=O)NNC(=O)c1cc(S(=O)(=O)N2CCOCC2)ccc1C`, the “hERG current change (%, negative = inhibition) at 10uM” value falls from 14% to 0.0364%.

First: CCOC(=O)/C(C)=N/NC(=O)c1cccc([N+](=O)[O-])c1
Second: O=C(N/N=C/c1cccc([N+](=O)[O-])c1)c1cccc2cc[nH]c12
The “hERG current change (%, negative = inhibition) at 10uM” value of the first is lower: 7.04% for the first, 15.9% for the second.

Going from `Cc1ccc(-c2nnc(Nc3ccccc3)o2)cc1` to `Cc1ccn2c(Nc3ccccc3)c(-c3ccccn3)nc2c1`, the “hERG current change (%, negative = inhibition) at 10uM” value falls from -0.386% to -10.8%.

First: Cc1cc(C)n2nc(SCc3nnc(-c4ccc(F)cc4)o3)nc2n1
Second: Cc1cc([N+](=O)[O-])nn1CC(=O)NNC(=S)Nc1ccc(F)cc1
The “hERG current change (%, negative = inhibition) at 10uM” value of the first is lower: -43% for the first, 20.3% for the second.

Going from `COC(=O)c1cc(CSC(=N)N)ccc1OCCC(C)C.Cl` to `CCCOc1ccc(C(C)=O)cc1Cc1c(O)[nH]c(=S)[nH]c1=O`, the “hERG current change (%, negative = inhibition) at 10uM” value rises from -3.46% to 17%.

Compared with `Cc1cccc(N2C(=O)C3C4C=CC(CC4)C3C2=O)c1` (centres unmarked), `O=C(C1CCC1)N1CCc2cc(S(=O)(=O)NCc3ccccn3)ccc21` is lower in “hERG current change (%, negative = inhibition) at 10uM” value: 9.21% for the first, 2.49% for the second.

Compared with `Cc1ccc(-n2c(C)cc(/C=N/NC(=O)c3ccc(CN4CCOCC4)cc3)c2C)cc1`, `Cc1ccc(-n2cc(CN3CCNC(=O)CC3)c(-c3ccc(F)cc3)n2)cc1` is lower in “hERG current change (%, negative = inhibition) at 10uM” value: -9.84% for the first, -35.4% for the second.

First: COc1ccc2nc(NC3=NCCC3)sc2c1
Second: COCCN(C(=O)c1csnn1)C(C(=O)NC1CCCC1)c1ccccc1F (centres unmarked)
The “hERG current change (%, negative = inhibition) at 10uM” value of the first is lower: -9.66% for the first, 6.33% for the second.

Compared with `COc1cc2cc(CN(CCc3cccc(C)c3)C(=S)NCCCN3CCOCC3)c(=O)[nH]c2cc1OC`, `COc1cc(OC)c(NC(=O)CCc2nc(-c3ccc(C)cc3)no2)cc1Cl` is higher in “hERG current change (%, negative = inhibition) at 10uM” value: -66.9% for the first, 6.21% for the second.

Going from `Nc1nnnn1/N=C/c1ccccc1OCc1ccccc1` to `Fc1ccccc1-c1nc(NCc2ccccc2)c2ccccc2n1`, the “hERG current change (%, negative = inhibition) at 10uM” value falls from 19% to 0.633%.

First: CCN(CC)S(=O)(=O)c1cc(C(=O)Nc2ccccc2[N+](=O)[O-])ccc1Cl
Second: Cc1ccc(S(=O)(=O)N(C)C)cc1NC(=O)c1cccnc1Oc1ccccc1
The “hERG current change (%, negative = inhibition) at 10uM” value of the first is lower: -14.4% for the first, 8.62% for the second.

Compared with `O=C1c2ccccc2C(=O)N1CC(O)CNc1ccc(Br)cc1` (centres unmarked), `Cc1ccc(CCNC(=O)CCn2c(=O)c3cccn3c3ccc(F)cc32)cc1` is lower in “hERG current change (%, negative = inhibition) at 10uM” value: -11.4% for the first, -12.1% for the second.

First: NS(=O)(=O)c1ccc(NC(=S)N2CCC(O)CC2)cc1
Second: O=C(Nc1ccc2c(c1)OCO2)N1CCN(C/C=C/c2ccccc2)CC1
The “hERG current change (%, negative = inhibition) at 10uM” value of the first is higher: 33.2% for the first, -15.4% for the second.

First: COc1cc(CNc2ccc3[nH]c(=O)[nH]c3c2)cc(Br)c1OCC(=O)NC(C)(C)C
Second: COc1ccc(C(C(=O)NC(C)(C)C)N(CCc2ccc(OC)c(OC)c2)C(=O)CCC(=O)Nc2cc(C)on2)cc1 (centres unmarked)
The “hERG current change (%, negative = inhibition) at 10uM” value of the first is lower: 3.64% for the first, 4.64% for the second.

First: CCc1ccc(N(CC(=O)NC(C)(C)CC)C(=O)CCC(=O)Nc2nccs2)cc1
Second: COCCOc1cc(NC(=O)CS(=O)(=O)CC(=O)N(C)C)c(Cl)cc1Cl
The “hERG current change (%, negative = inhibition) at 10uM” value of the first is lower: -8.86% for the first, 3.42% for the second.

Going from `O=C(c1ccc(Cl)nc1)c1cccs1` to `CC1=NN(C(=O)c2ccc(Br)cc2)C(O)(C(F)(F)OC(F)(F)F)C1` (centres unmarked), the “hERG current change (%, negative = inhibition) at 10uM” value falls from 17.8% to 10%.

Compared with `CCNc1nc(Cl)nc(NC2CCCCC2)n1`, `CC(C)Oc1cccc(C(=O)C2CCCN(Cc3cccn3-c3ccccn3)C2)c1` (centres unmarked) is lower in “hERG current change (%, negative = inhibition) at 10uM” value: -2.08% for the first, -78.8% for the second.

With `C/C(=N\Nc1nc(C)cc(-c2ccccc2)n1)c1ccccc1` the “hERG current change (%, negative = inhibition) at 10uM” value was 18.2%.
